Measurements published in the supplement of paper PMC11417369.
± gives the standard deviation of the averaged measurements. The list shows a part of the results.

system: PfAP2-EXP AP2 domain (GST-tagged); assay: gcPBM binding intensity (ln(normalized median fluorescence intensity)); higher = stronger DNA binding
Method in brief: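 GST-fused DNA-binding domains of P. falciparum, expressed in E. coli, were applied at about 25 μg on average for 1 h to an Agilent 4 × 180k array of primer-extended double-stranded 36-bp intergenic genomic probes and negative controls. Binding intensity is the highest Masliner-normalised natural-log median intensity across replicate spots of either probe orientation, measured with Alexa488 anti-GST antibody and a 488 nm scan.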

Sequence | gcPBM binding intensity (ln)
AATATACAAAATATCACACATATAAAATAATATATA [CACACA_site6067] | 8.27 ± 0.5
AAATAATATGTAATCAAATTCACCAAACGAAAAAAA [TGCATGCA_negctrl_site33] | 8.62 ± 0.5
AATGGTTCAACGTAGTGTACGTAATAAATAATAAAT [XGTACX_site8668] | 8.8 ± 0.31
TGATAATTTCATTTTGCATGTGACAATACAAGATGT [TGCATGCA_site203] | 8.59 ± 0.18
TAAAATAAATTGTGCACACATATTTATAAATATGAA [CACACA_site2331] | 8.91 ± 0.34
ATGGACTTTTATAGTTGTACATACTATGAGAACTTT [XGTACX_site2800] | 8.69 ± 0.71
TACATATAAAAGTACACACACACACCCATATATATA [CACACA_site941] | 8.93 ± 0.32
GTTTATCACAGCCACGCACACATAATATATGTATAT [CACACA_site3669] | 8.8 ± 0.5
TATTGCCCGAAACACACACACATATATATATATATA [CACACA_site2491] | 10.3 ± 0.2
TATAATATTTACGACAGTACATATATATATATGTAT [XGTACX_site8332] | 8.51 ± 0.4
AAATAATTTGTTGACACACACACACCCATACATATA [CACACA_site2285] | 8.9 ± 0.69
ATCTGTCGACAGGACAGTACACAGTAGCCAGGAAAT [XGTACX_site1994] | 9.03 ± 0.67
TATATATATATATATATATATATGTATGTGCATTTA [TGCATGCA_negctrl_site53] | 10.1 ± 0.69
ATTTAGAAAAATAAAACACACATATATATGTAAATA [CACACA_site4113] | 8.66 ± 0.48
ATATAAAAATGTAAGGGTACATAATAAATAATCAAA [XGTACX_site5217] | 8.66 ± 0.34
AAAAAATATTAATATAGTACTTTATATTTATAAGTA [XGTACX_site6895] | 8.46 ± 0.6
GGAAAAAATATATGCACACCCCCCAAAAAAAAAAAA [CACACA_site2222] | 10.95 ± 0.099
TTTTTGTTATTTTTAGTGCACATTTAAGGGTGTATT | 9.13 ± 0.014
TATATCTTACTTTTTGCACACACTAATATTATTGTT [CACACA_site1640] | 9.03 ± 0.38
ACAAAATTTACAAAATGTACAAAATTTACAAAATGT [XGTACX_site6464] | 8.37 ± 0.4
GAAGGAAAAACAGAATGTACATAAATAAACGTATAT [XGTACX_site753] | 9.15 ± 0.73
AATACGGCAAACATTAAAAAATATAATAACAATAAA [CACACA_negctrl_site868] | 8.66 ± 0.33
TAAGGATGAATCCTTTGTACATATATATATATATAT [XGTACX_site1242] | 10.2 ± 0.28

Sequence | gcPBM binding intensity (ln)
TGAAAAGAAAACACATGTACAAATATATAAATATAA [XGTACX_site6098] | 8.71 ± 0.44
GTTATACATTTTGATTGTACATAAACCATTTGAGCA [XGTACX_site7283] | 8.62 ± 0.31
TTTTTTTAAATATACACACACATTTATACATATATA [CACACA_site3400] | 8.51 ± 0.39
TTTAACGTTGAATATACACACATATATATATATATA [CACACA_site3698] | 10.2 ± 0.44
ATATATTTTTGTAGTGTGCACGTTTATATGGTGAAA | 9.48 ± 0.35
TATAAACATATCATATGTACATATATTTTTATAAAA [XGTACX_site8882] | 8.42 ± 0.35
AAGAAAAAATAAAAAATAAAAATAAAAAATAAAAAA [TGCATGCA_negctrl_site274] | 8.35 ± 0.3
TTAAATATAATATTATGTACTAAATATTTTTTTATT [XGTACX_site6121] | 8.09 ± 0.37
TTTCTTTTTAAATAGGTGCATATTTTTATAAATATA | 9.03 ± 0.45
CAAGAAATTTACAAACGTACATATGTTCATACAAGG [XGTACX_site2372] | 8.79 ± 0.37
TTAGAGAAACAAAATTGTACATTATAAATTTGCCTT [XGTACX_site440] | 8.34 ± 0.34
TATTTGAAAGCCAATTGTACTTTAGTTTTTGAAACA [XGTACX_site5542] | 8.3 ± 0.37
CTATTTCAGAAACACACACACACAAACAAACATATA [CACACA_site978] | 8.73 ± 0.66
ATATATTTACATATTACACACAATATTGTACACATA [CACACA_site6564] | 8.83 ± 0.47
TTTATATATATTCTCACACACTTTTTATTTTAACAA [CACACA_site4534] | 8.62 ± 0.38
AAAAATATTTATAACACACACATAATATTTATATAT [CACACA_site7238] | 8.53 ± 0.44
ATAAATTTCCTCGTTTTTTTTTTTTTTTTTTTTTTT [CACACA_negctrl_site1173] | 9.01 ± 0.19
TATGTCAAAAAATAATGTACAAAAAAATTAACATAA [XGTACX_site5463] | 8.5 ± 0.38
CTATAATATAGGTATACACACATATTATAGAATATT [CACACA_site7696] | 8.42 ± 0.48
ATATAAAATAGACACGCACACAAAAAAAAAAAAAAA [CACACA_site3522] | 8.38 ± 0.51
TATATATGGAAAAGGTGTACATTCAATATATATATA [XGTACX_site3167] | 9.75 ± 0.31
TTTATTTTGTAGTGTACACATATATATATATATATA [CACACA_site5843] | 10.3 ± 0.36
